Data published in patent US20250032630A1, “B7H4 ANTIBODY-DRUG CONJUGATE AND USE THEREOF” (Duality Biologics (Suzhou) Co., Ltd., priority 2022, published 2025).

Key:
human PD-L1 (B7-H1) = molecular target: T1, human PD-L1 (B7-H1) (Homo sapiens, UniProt Q9NZQ7); assay: Binding specificity to cells overexpressing human B7 family proteins (flow cytometry); conditions: HEK293T stably expressing the protein, 100 nM or 300 nM
T1 construct: expressed in transfected cells

mouse B7H4 = molecular target: T2, mouse B7H4 (Mus musculus, UniProt Q7TSP5); assay: Species cross-reactivity, flow cytometry binding to B7H4-transfected HEK293T cells; conditions: Mouse B7H4-293T
T2 construct: expressed in transfected cells; host or cells: HEK293T
T2 sequence (Q7TSP5 25-257): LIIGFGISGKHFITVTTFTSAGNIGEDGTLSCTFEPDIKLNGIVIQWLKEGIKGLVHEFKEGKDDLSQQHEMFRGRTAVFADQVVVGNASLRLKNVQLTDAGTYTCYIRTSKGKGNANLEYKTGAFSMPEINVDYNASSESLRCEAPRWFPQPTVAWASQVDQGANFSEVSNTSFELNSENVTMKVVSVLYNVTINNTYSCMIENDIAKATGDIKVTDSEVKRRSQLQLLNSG

human CD80 (B7-1) = molecular target: T3, human CD80 (B7-1) (Homo sapiens, UniProt P33681); assay: Binding specificity to cells overexpressing human B7 family proteins (flow cytometry); conditions: HEK293T stably expressing the protein, 100 nM or 300 nM
T3 construct: expressed in transfected cells
T3 sequence (P33681 35-288): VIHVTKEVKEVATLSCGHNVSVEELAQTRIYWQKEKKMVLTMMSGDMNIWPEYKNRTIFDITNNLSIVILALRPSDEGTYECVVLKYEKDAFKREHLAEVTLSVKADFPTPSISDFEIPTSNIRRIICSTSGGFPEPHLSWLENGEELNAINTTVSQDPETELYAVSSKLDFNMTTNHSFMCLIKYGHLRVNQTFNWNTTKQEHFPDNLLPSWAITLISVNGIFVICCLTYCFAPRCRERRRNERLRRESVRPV

[1] = system: human endometrial carcinoma cells RL95-2 subcutaneous xenograft; assay: Pharmacodynamic evaluation in tumor-bearing mice (RL95-2); assay type: in vivo
[2] = system: B7H4-expressing MDA-MB-468 cells; assay: Endocytosis efficiency (Incucyte Fabfluor-pH, live-cell imaging 24 hours); assay type: cell-based; conditions: MDA-MB-468, final concentration 60 nM
[3] = system: B7H4-overexpressing human colorectal cancer cells HT29 (HT29-B7H4); assay: In vitro proliferation inhibition of antibody-drug conjugate (2D cell culture, CTG); assay type: cell-based; conditions: HT29-B7H4, 10 nM, 7 days
human CD276 (B7-H3) = molecular target: T4, human CD276 (B7-H3) (Homo sapiens, UniProt Q5ZPR3); assay: Binding specificity to cells overexpressing human B7 family proteins (flow cytometry); conditions: HEK293T stably expressing the protein, 100 nM or 300 nM
T4 construct: expressed in transfected cells
T4 sequence (Q5ZPR3 29-534): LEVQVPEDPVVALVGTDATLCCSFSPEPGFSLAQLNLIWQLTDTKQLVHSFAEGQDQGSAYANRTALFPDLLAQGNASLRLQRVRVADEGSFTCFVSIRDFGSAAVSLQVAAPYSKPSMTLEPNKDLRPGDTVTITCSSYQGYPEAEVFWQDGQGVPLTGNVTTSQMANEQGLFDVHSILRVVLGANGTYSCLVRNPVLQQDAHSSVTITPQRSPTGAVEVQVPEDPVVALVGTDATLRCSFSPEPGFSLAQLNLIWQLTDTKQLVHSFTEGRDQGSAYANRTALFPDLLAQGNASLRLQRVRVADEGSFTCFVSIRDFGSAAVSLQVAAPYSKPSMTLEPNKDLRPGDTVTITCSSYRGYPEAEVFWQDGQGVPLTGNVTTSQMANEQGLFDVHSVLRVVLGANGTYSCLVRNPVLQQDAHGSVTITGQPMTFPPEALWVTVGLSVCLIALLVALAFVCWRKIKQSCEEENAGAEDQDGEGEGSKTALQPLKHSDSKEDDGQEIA

MDA-MB-468 cells = assay: Endocytosis of antibody-drug conjugate (Fab-pHrodo, FACS); assay type: cell-based; conditions: two values per conjugate
[4] = system: HT29-Luc2 cells that do not express B7H4; assay: Bystander killing test (Bright-Glo luciferase); assay type: cell-based; conditions: 10 nM, 7 days
[5] = system: human primary T cells co-cultured with 293T-OS8-human B7H4 cells; assay: T cell activation: blocking B7H4 inhibition on T cells, IFN-gamma ELISA; assay type: cell-based; conditions: 0.02 nM, 3 days
human ICOSLG (B7-H2) = molecular target: T5, human ICOSLG (B7-H2) (Homo sapiens, UniProt O75144); assay: Binding specificity to cells overexpressing human B7 family proteins (flow cytometry); conditions: HEK293T stably expressing the protein, 100 nM or 300 nM
T5 construct: expressed in transfected cells
T5 sequence (O75144 19-302): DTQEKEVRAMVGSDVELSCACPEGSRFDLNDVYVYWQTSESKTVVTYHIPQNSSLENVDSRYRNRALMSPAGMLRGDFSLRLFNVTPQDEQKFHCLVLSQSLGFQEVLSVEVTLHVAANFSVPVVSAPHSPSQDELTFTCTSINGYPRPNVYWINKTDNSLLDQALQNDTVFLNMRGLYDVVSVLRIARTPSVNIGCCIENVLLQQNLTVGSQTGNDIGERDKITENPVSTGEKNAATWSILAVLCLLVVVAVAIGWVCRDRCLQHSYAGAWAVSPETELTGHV

human PD-L2 (B7-DC) = molecular target: T6, human PD-L2 (B7-DC) (Homo sapiens, UniProt Q9BQ51); assay: as above; conditions: HEK293T stably expressing the protein, 100 nM or 300 nM
T6 construct: expressed in transfected cells
T6 sequence (Q9BQ51 20-273): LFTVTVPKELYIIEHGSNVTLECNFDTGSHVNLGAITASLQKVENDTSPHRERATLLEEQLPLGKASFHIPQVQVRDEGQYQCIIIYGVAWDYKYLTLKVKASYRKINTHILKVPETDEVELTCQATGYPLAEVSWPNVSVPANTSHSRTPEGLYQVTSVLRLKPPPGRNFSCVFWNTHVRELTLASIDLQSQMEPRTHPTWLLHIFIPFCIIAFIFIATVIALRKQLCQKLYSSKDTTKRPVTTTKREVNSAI

T1 sequence (Q9NZQ7 19-290): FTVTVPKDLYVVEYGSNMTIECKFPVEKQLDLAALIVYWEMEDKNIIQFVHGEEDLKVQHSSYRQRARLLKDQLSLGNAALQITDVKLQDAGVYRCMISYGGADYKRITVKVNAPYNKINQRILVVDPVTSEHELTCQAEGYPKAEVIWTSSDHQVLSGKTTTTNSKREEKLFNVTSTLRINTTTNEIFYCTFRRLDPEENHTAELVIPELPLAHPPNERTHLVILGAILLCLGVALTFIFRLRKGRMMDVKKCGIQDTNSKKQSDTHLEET

B1: DB1001-X2: anti-B7H4 antibody DB1001 conjugated with linker-cytotoxin X2, DAR 5.4 (conjugate)
heavy: QVQLVESGGGVVQPGRSLRLSCAASGFTFRSFGMHWVRQAPGKGLEWVAVISYDASNEYYADSVKGRFIISRDNSKDTLYLQMNSLRAGDTAVYYCAKGGALRWYFAYWGQGTLVTVSS[in this place human IgG1 constant region]
light: EIVMTQSPATLSVSPGERATLSCRASQSISSNLGWYQQKPGQAPRLLIYGASTRATGIPARFSGSGSGTEFTLTISSLQSEDFAVYYCQQYRSWPPLTFGGGTKVEIKRTVAAPSVFIFPPSDEQLKSGTASVVCLLNNFYPREAKVQWKVDNALQSGNSQESVTEQDSKDSTYSLSSTLTLSKADYEKHKVYACEVTHQGLSSPVTKSFNRGEC
In the case of B1, the “binding to B7-H1” value (human PD-L1 (B7-H1)) is reported as “not detected”, the EC50 (mouse B7H4) is reported as “Not binding” and the MFI.Max (mouse B7H4) is reported as “Not binding”. The “binding to B7-1” value (human CD80 (B7-1)) was “not detected”, the T/C ([1]; RL95-2, day 28, 1 mg/kg) was 57.86% and the TGI ([1]; RL95-2, day 28, 1 mg/kg) was 49.92%. For the same molecule, the Tumor volume ([1]; RL95-2, day 28, 1 mg/kg once every two weeks x2, mean ± standard error) was 593 ± 79 mm^3, the T/C ([1]; RL95-2, day 28, 3 mg/kg) was 24.06% and the TGI ([1]; RL95-2, day 28, 3 mg/kg) was 86.52%. For the same molecule, the Tumor volume ([1]; RL95-2, day 28, 3 mg/kg once every two weeks x2, mean ± standard error) was 258 ± 33 mm^3, the T/C ([1]; RL95-2, day 28, 10 mg/kg) was 7.05% and the TGI ([1]; RL95-2, day 28, 10 mg/kg) was 106.59%. For the same molecule, the Tumor volume ([1]; RL95-2, day 28, 10 mg/kg once every two weeks x2, mean ± standard error) was 74 ± 5 mm^3, the Total fluorescence area [2] was 14318.1 μm^2/image and the Cell viability [3] was 28.0%. For the same molecule, the “binding to B7-H3” value (human CD276 (B7-H3)) was “not detected”, the Fluorescence value (MDA-MB-468 cells; MDA-MB-468, sample concentration 0.000384 nM) was 98.2 and 98.1 and the Fluorescence value (MDA-MB-468 cells; MDA-MB-468, sample concentration 0.00192 nM) was 96.6 and 97.4. For the same molecule, the Fluorescence value (MDA-MB-468 cells; MDA-MB-468, sample concentration 0.0096 nM) was 97.1 and 98.2, the Fluorescence value (MDA-MB-468 cells; MDA-MB-468, sample concentration 0.048 nM) was 97.8 and 104 and the Fluorescence value (MDA-MB-468 cells; MDA-MB-468, sample concentration 0.24 nM) was 219 and 235. For the same molecule, the Fluorescence value (MDA-MB-468 cells; MDA-MB-468, sample concentration 1.2 nM) was 119 and 130, the Fluorescence value (MDA-MB-468 cells; MDA-MB-468, sample concentration 6 nM) was 219 and 235 and the Fluorescence value (MDA-MB-468 cells; MDA-MB-468, sample concentration 30 nM) was 343 and 327. The “HT29-Luc2 cell viability, Separate incubation” value [4] was 76.8%, the “HT29-Luc2 cell viability, Co-incubation” value ([4]; co-incubated with HT29-B7H4 at 3:1) was 20.3% and the “Donor 1 IFN-γ” value ([5]; T cells of donor 1) was 6491.1 pg/mL. The “Donor 2 IFN-γ” value ([5]; T cells of donor 2) was 5914.4 pg/mL, the “Mean IFN-γ” value ([5]; mean of donors 1 and 2) was 6202.8 pg/mL and the “binding to B7-H2” value (human ICOSLG (B7-H2)) was “not detected”. For the same molecule, the “binding to B7-DC” value (human PD-L2 (B7-DC)) was “not detected”.

Where “and” joins values, the source holds several entries; their conditions need not be identical. Identical values can stand only once.
